Laboratory results from the supplement of paper PMC11166567.
Some of the results follow.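 How the source made its calls: active = permutation test q below 0.05 after Benjamini-Hochberg correction; inactive = q of 0.05 or more.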

Legend:
[1] = test system: A549; test: mean average precision of replicate retrieval against DMSO controls (Cell Painting phenotypic activity) (fraction (0-1)); higher = stronger, more reproducible morphological phenotype distinct from DMSO; extreme values may be limits of the assay; conditions: 5 µM
[2] = test system: U2OS; test: as above; conditions: 5 µM
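Further: cosine similarity of well-level aggregated Cell Painting profiles ranks each compound's replicate wells against DMSO wells, four replicate plates, significance from 100,000 rank shuffles.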

| Structure (SMILES) | mean average precision ([1]; 24 h) | mean average precision ([1]; 48 h) | mean average precision ([2]; 24 h) | mean average precision ([2]; 48 h) |
| --- | --- | --- | --- | --- |
| C[C@@H]1C[C@H]2[C@@H]3CCC4=CC(=O)C=C[C@]4(C)[C@@]3(F)[C@@H](O)C[C@]2(C)[C@@]1(O)C(=O)CO | active: 0.904 | active: 1 | active: 0.939 | active: 0.889 |
| COc1ccc(OC)c2c(=S)c3ccccc3[nH]c12 | active: 0.691 | active: 0.656 | active: 0.626 | active: 0.495 |
| Nc1nc(=S)c2[nH]cnc2[nH]1 | active: 1 | active: 1 | active: 1 | active: 1 |
| COc1cccc(-c2cc(F)ccc2[C@H]2Cc3nc(N)nc(C)c3C(=O)N2)n1 | active: 1 | active: 1 | active: 1 | active: 1 |
| COc1ccc(Cl)cc1C(=O)NCCc1ccc(S(=O)(=O)NC(=O)NC2CCCCC2)cc1 | active: 0.353 | active: 0.767 | active: 0.378 | inactive: 0.257 |
| Nc1nc(N)c2nc(-c3ccccc3)c(N)nc2n1 | active: 0.587 | active: 0.979 | active: 0.857 | active: 0.807 |
| COc1cccc(-c2cc(=O)c3ccccc3o2)c1N | active: 0.787 | active: 1 | active: 0.793 | active: 0.549 |
| COc1cc(C(=O)OCCCN2CCCN(CCCOC(=O)c3cc(OC)c(OC)c(OC)c3)CC2)cc(OC)c1OC | active: 0.32 | active: 0.794 | active: 0.501 | active: 0.403 |
| COCC(=O)NC/C=C/c1ccc2ncnc(Nc3ccc(Oc4ccc(C)nc4)c(C)c3)c2c1 | active: 1 | active: 1 | active: 0.951 | active: 1 |
| NC(CSSCC(N)C(=O)O)C(=O)O (stereo not given) | inactive: 0.13 | inactive: 0.259 | inactive: 0.127 | inactive: 0.0729 |
